In publication PMC6451091:
This is one part of the list. The protein was read in a cell extract, so binding may be indirect.

What follows are sequences tested against T1, FLI1 (endogenous, THP-1 nuclear extract) (UniProt Q01543) (assay: nuclear extract protein-binding microarray (nextPBM)). Details: 20 mM HEPES pH 7.9, 100 mM NaCl, 1 mM DTT, 0.2 mg/mL BSA, 0.02% Triton X-100, 2% milk, 0.4 mg/mL salmon testes DNA; 1 h; temperature not stated; high values mean tight binding; double strand, one strand shown; sequences stand for … in GCCTAGCAC…GTGCTAGGTCTTGATTCGCTTGACGCTGCTG.
T1 sequence: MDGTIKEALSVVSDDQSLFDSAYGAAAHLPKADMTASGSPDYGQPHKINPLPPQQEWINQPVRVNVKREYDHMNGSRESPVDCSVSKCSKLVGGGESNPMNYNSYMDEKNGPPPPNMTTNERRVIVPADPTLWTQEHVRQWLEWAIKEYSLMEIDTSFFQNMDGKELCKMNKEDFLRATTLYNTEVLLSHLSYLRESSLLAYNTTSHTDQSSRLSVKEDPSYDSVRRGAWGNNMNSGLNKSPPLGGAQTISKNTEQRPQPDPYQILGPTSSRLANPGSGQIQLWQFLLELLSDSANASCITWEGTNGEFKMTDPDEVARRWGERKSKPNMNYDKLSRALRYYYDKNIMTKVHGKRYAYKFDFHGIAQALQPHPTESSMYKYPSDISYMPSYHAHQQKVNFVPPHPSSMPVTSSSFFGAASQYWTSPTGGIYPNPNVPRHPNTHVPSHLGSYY
CAAAAAGGGAAGTGGGTTGA gave a binding signal of 3.08 z-score.
Work on AAAAAAAGGAAGTCCTTGTG yielded a binding signal of 2.88 z-score.
ATAAAGAGGAAGTGAAATTA was tested, and the binding signal was 4.05 z-score.
Work on GATGAGAGGAAGTCCTCTGT yielded a binding signal of 2.2 z-score.
In the case of GAAAAGAGGAAGTCCGGTGA, the binding signal is reported as 4.04 z-score.
GAAAAGGGGAAGTGAGGGAT showed a binding signal of 3.67 z-score.
In the case of AAAAAGAAGAAGTGGGGATA, the binding signal is reported as 0.979 z-score.
Sequence AGTATGAGGAAGTGAGACCT has a binding signal of 2.73 z-score.
Sequence CAAAACAGGAAGTGGCTCTT has a binding signal of 5.67 z-score.
TAGTAGAGGAAGTACTGTGA was tested, and the binding signal was 2.38 z-score.
ACAAAAAGGAACTGTGCCTC showed a binding signal of 0.761 z-score.
Work on TCTGAGAGGAAGTGAGATAG yielded a binding signal of 2.88 z-score.
CGCAAGGGGAACTACTGTGC showed a binding signal of 0.6 z-score.
With GAAATCAGGAAGTGAAGATG the binding signal was 3.43 z-score.
With GAAATGAGGAAGTGCTAGTG the binding signal was 4.42 z-score.
Sequence CCAAGAGGGAAGTGGGGGAG has a binding signal of 1.33 z-score.
GGAGGAAGGAAGTGAGCAGA showed a binding signal of 2.04 z-score.
Work on GAGAAAAGGAAGTGGCTCTT yielded a binding signal of 2.63 z-score.
With TGGTTGGGGAAGTGGCCACT the binding signal was 1.07 z-score.
With AAAGAAGGGAAGTGACTTGC the binding signal was 1.89 z-score.
In the case of GATAAGAGGAAGTCCTATGT, the binding signal is reported as 3.07 z-score.
For GCAAAGGGGAAATGAGTTTT, the binding signal was 2.38 z-score.
GGAAAGAGGAAGTGACATGG showed a binding signal of 4.43 z-score.
ACAGGAGGGAAGTGTGAAAT gave a binding signal of 1.26 z-score.
Work on CGAAAGGGGAAGTGCTACAC yielded a binding signal of 3.08 z-score.
CACAAGAGGAAGTCCCACAA was tested, and the binding signal was 2.31 z-score.
Sequence GCCAAGAGGAAGTCTACAAA has a binding signal of 2.21 z-score.
TTCATGAGGAAGTGCTAGCC showed a binding signal of 2.14 z-score.
AAAAAGAAGAAGTGAGCCGA gave a binding signal of 0.819 z-score.
For AAATAGGGGAAGTGTGTACA, the binding signal was 2.87 z-score.
For TTAAACAGGAAGTAGTAACC, the binding signal was 5.44 z-score.
CCGAGGAGGAAGTGGCTTAG was tested, and the binding signal was 2.92 z-score.
In the case of TAGAAGAGGAAGTCAGGAGT, the binding signal is reported as 2.91 z-score.
TGAAAGAGGAAGTGCCACCA gave a binding signal of 4 z-score.
With GGAAAGAGGAAGAGAGAGTG the binding signal was 1.82 z-score.
ACAATAAGGAACTGTGCCCC was tested, and the binding signal was 0.837 z-score.
GGAAAGAGGAAGTGGCAGGA gave a binding signal of 3.69 z-score.
Sequence CTGCCAGGGAAGTACTGTGA has a binding signal of 0.0985 z-score.
Sequence TGTGGGAGGAAGTGCAAAAA has a binding signal of 2.43 z-score.
GAAATGGGGAAGTGGCCAGA gave a binding signal of 2.83 z-score.
